# Measurements: the supplement of paper PMC8728848
# The list shows a part of the results.
# B1: ACA (Amaranthus caudatus) (protein)
# chain: MAGLPVIMCLKSNNNQKYLRYQSDNIQQYGLLQFSADKILDPLAQFEVEPSKTYDGLVHIKSRYTNKYLVRWSPNHYWITASANEPDENKSNWACTLFKPLYVEEGNMKKVRLLHVQLGHYTQNYTVGGSFVSYLFAESSQIDTGSKDVFHVIDWKSIFQFPKRYVTFKGNNGKYLGVITINQLPCLQFGYDNLNDPKVAHEMFVTSNGTICIKSTYMNKFWRLSTDDWILVDGNDPRETNEAAALFRSDVHDFNVISLLNMQKTWFIKRFTSGKPGFINCMNAATQNVDETAILEIIELGSNN
# What was measured:
# Assay in all cases: glycan array binding signal (z-score within array); higher = stronger binding
# Conditions in all cases: glycan notation: IUPAC condensed, linker removed
# GlcA(b1-3)Gal = target: GlcA(b1-3)Gal
# In short: (§1)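 Arrays were curated from the Consortium for Functional Glycomics database, 3228 in total, and kept only where the protein sequence was available. Binding is expressed as a within-array Z-score. This score was averaged across arrays of the same protein sequence at different concentrations or buffers and across linkers, and negative values can be read as non-binding.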
# GlcA(b1-3)GlcNAc = target: GlcA(b1-3)GlcNAc
# In short: as §1
# GlcA(b1-6)Gal = target: GlcA(b1-6)Gal
# In short: as §1
# [1] = target: GlcA3S(b1-3)Gal(b1-4)GlcNAc(b1-2)Man
# In short: as §1
# [2] = target: GlcA3S(b1-3)Gal(b1-4)GlcNAc(b1-3)Gal(b1-4)Glc
# In short: as §1
# [3] = target: GlcNAc(a1-3)Gal(b1-4)GlcNAc
# In short: as §1
# [4] = target: GlcNAc(a1-4)Gal(b1-3)GlcNAc
# In short: as §1
# [5] = target: GlcNAc(a1-4)Gal(b1-4)GalNAc
# In short: as §1
# [6] = target: GlcNAc(a1-4)Gal(b1-4)GlcNAc
# In short: as §1
# [7] = target: GlcNAc(a1-4)Gal(b1-4)GlcNAc(b1-3)Gal(b1-4)Glc
# In short: as §1
# [8] = target: GlcNAc(a1-4)Gal(b1-4)GlcNAc(b1-3)Gal(b1-4)GlcNAc
# In short: as §1
# [9] = target: GlcNAc(a1-4)Gal(b1-4)GlcNAc(b1-3)Gal(b1-4)GlcNAc(b1-3)Gal(b1-4)GlcNAc
# In short: as §1
# [10] = target: GlcNAc(a1-4)Gal(b1-4)GlcNAc(b1-3)Gal(b1-4)[Fuc(a1-3)]GlcNAc(b1-3)Gal(b1-4)[Fuc(a1-3)]GlcNAc
# In short: as §1
# [11] = target: GlcNAc(a1-6)Gal(b1-4)GlcNAc
# In short: as §1
# [12] = target: GlcNAc(b1-2)Gal(b1-3)GalNAc
# In short: as §1
# [13] = target: GlcNAc(b1-2)Man(a1-3)[GlcNAc(b1-2)Man(a1-6)]Man(b1-4)GlcNAc(b1-4)GlcNAc
# In short: as §1
# [14] = target: GlcNAc(b1-2)Man(a1-3)[GlcNAc(b1-2)Man(a1-6)]Man(b1-4)GlcNAc(b1-4)[Fuc(a1-6)]GlcNAc
# In short: as §1
# [15] = target: GlcNAc(b1-2)Man(a1-3)[GlcNAc(b1-4)][GlcNAc(b1-2)Man(a1-6)]Man(b1-4)GlcNAc(b1-4)GlcNAc
# In short: as §1
# [16] = target: GlcNAc(b1-2)Man(a1-3)[GlcNAc(b1-4)][GlcNAc(b1-2)Man(a1-6)]Man(b1-4)GlcNAc(b1-4)[Fuc(a1-6)]GlcNAc
# In short: as §1
# [17] = target: GlcNAc(b1-2)[GlcNAc(b1-4)]Man(a1-3)[GlcNAc(b1-2)Man(a1-6)]Man(b1-4)GlcNAc(b1-4)GlcNAc
# In short: as §1
# [18] = target: GlcNAc(b1-2)[GlcNAc(b1-4)]Man(a1-3)[GlcNAc(b1-4)][GlcNAc(b1-2)Man(a1-6)]Man(b1-4)GlcNAc(b1-4)GlcNAc
# In short: as §1
# [19] = target: GlcNAc(b1-2)[GlcNAc(b1-4)]Man(a1-3)[GlcNAc(b1-4)][GlcNAc(b1-2)[GlcNAc(b1-6)]Man(a1-6)]Man(b1-4)GlcNAc(b1-4)GlcNAc
# In short: as §1
# [20] = target: GlcNAc(b1-2)[GlcNAc(b1-4)]Man(a1-3)[GlcNAc(b1-4)][GlcNAc(b1-2)[GlcNAc(b1-6)]Man(a1-6)]Man(b1-4)GlcNAc(b1-4)[Fuc(a1-6)]GlcNAc
# In short: as §1
# [21] = target: GlcNAc(b1-2)[GlcNAc(b1-6)]Man(a1-6)[GlcNAc(b1-2)Man(a1-3)]Man(b1-4)GlcNAc(b1-4)GlcNAc
# In short: as §1
# [22] = target: GlcNAc(b1-2)[GlcNAc(b1-6)]Man(a1-6)[GlcNAc(b1-2)Man(a1-3)]Man(b1-4)GlcNAc(b1-4)[Fuc(a1-6)]GlcNAc
# In short: as §1
# [23] = target: GlcNAc(b1-2)[GlcNAc(b1-6)]Man(a1-6)[GlcNAc(b1-4)][GlcNAc(b1-2)Man(a1-3)]Man(b1-4)GlcNAc(b1-4)GlcNAc
# In short: as §1
# GlcNAc(b1-3)Fuc = target: GlcNAc(b1-3)Fuc
# In short: as §1
# GlcNAc(b1-3)Gal = target: GlcNAc(b1-3)Gal
# In short: as §1
# [24] = target: GlcNAc(b1-3)Gal(b1-3)GalNAc
# In short: as §1
# GlcNAc(b1-3)Gal(b1-4)Glc = target: GlcNAc(b1-3)Gal(b1-4)Glc
# In short: as §1
# [25] = target: GlcNAc(b1-3)Gal(b1-4)GlcNAc
# In short: as §1
# [26] = target: GlcNAc(b1-3)Gal(b1-4)GlcNAc(b1-2)Man(a1-3)[GlcNAc(b1-3)Gal(b1-4)GlcNAc(b1-2)Man(a1-6)]Man(b1-4)GlcNAc(b1-4)GlcNAc
# In short: as §1
# [27] = target: GlcNAc(b1-3)Gal(b1-4)GlcNAc(b1-2)Man(a1-3)[GlcNAc(b1-3)Gal(b1-4)GlcNAc(b1-2)Man(a1-6)]Man(b1-4)GlcNAc(b1-4)[Fuc(a1-6)]GlcNAc
# In short: as §1
# [28] = target: GlcNAc(b1-3)Gal(b1-4)GlcNAc(b1-2)[GlcNAc(b1-3)Gal(b1-4)GlcNAc(b1-6)]Man(a1-6)[GlcNAc(b1-3)Gal(b1-4)GlcNAc(b1-2)Man(a1-3)]Man(b1-4)GlcNAc(b1-4)GlcNAc
# In short: as §1
# [29] = target: GlcNAc(b1-3)Gal(b1-4)GlcNAc(b1-3)Gal(b1-4)GlcNAc
# In short: as §1
# [30] = target: GlcNAc(b1-3)Gal(b1-4)GlcNAc(b1-3)Gal(b1-4)GlcNAc(b1-2)Man(a1-3)[GlcNAc(b1-3)Gal(b1-4)GlcNAc(b1-3)Gal(b1-4)GlcNAc(b1-2)Man(a1-6)]Man(b1-4)GlcNAc(b1-4)GlcNAc
# In short: as §1
# [31] = target: GlcNAc(b1-3)Gal(b1-4)GlcNAc(b1-3)Gal(b1-4)GlcNAc(b1-2)Man(a1-3)[GlcNAc(b1-3)Gal(b1-4)GlcNAc(b1-3)Gal(b1-4)GlcNAc(b1-2)Man(a1-6)]Man(b1-4)GlcNAc(b1-4)[Fuc(a1-6)]GlcNAc
# In short: as §1
# [32] = target: GlcNAc(b1-3)Gal(b1-4)GlcNAc(b1-3)Gal(b1-4)GlcNAc(b1-2)[GlcNAc(b1-3)Gal(b1-4)GlcNAc(b1-3)Gal(b1-4)GlcNAc(b1-6)]Man(a1-6)[GlcNAc(b1-3)Gal(b1-4)GlcNAc(b1-3)Gal(b1-4)GlcNAc(b1-2)Man(a1-3)]Man(b1-4)GlcNAc(b1-4)[Fuc(a1-6)]GlcNAc
# In short: as §1
# [33] = target: GlcNAc(b1-3)Gal(b1-4)GlcNAc(b1-3)Gal(b1-4)GlcNAc(b1-3)Gal(b1-4)GlcNAc(b1-2)Man(a1-3)[GlcNAc(b1-3)Gal(b1-4)GlcNAc(b1-3)Gal(b1-4)GlcNAc(b1-3)Gal(b1-4)GlcNAc(b1-2)Man(a1-6)]Man(b1-4)GlcNAc(b1-4)GlcNAc
# In short: as §1
# [34] = target: GlcNAc(b1-3)Gal(b1-4)GlcNAc(b1-3)Gal(b1-4)GlcNAc(b1-3)Gal(b1-4)GlcNAc(b1-2)Man(a1-3)[GlcNAc(b1-3)Gal(b1-4)GlcNAc(b1-3)Gal(b1-4)GlcNAc(b1-3)Gal(b1-4)GlcNAc(b1-2)Man(a1-6)]Man(b1-4)GlcNAc(b1-4)[Fuc(a1-6)]GlcNAc
# In short: as §1
# [35] = target: GlcNAc(b1-3)Gal(b1-4)GlcNAc(b1-3)Gal(b1-4)GlcNAc(b1-3)Gal(b1-4)GlcNAc(b1-2)[GlcNAc(b1-3)Gal(b1-4)GlcNAc(b1-3)Gal(b1-4)GlcNAc(b1-3)Gal(b1-4)GlcNAc(b1-6)]Man(a1-6)[GlcNAc(b1-3)Gal(b1-4)GlcNAc(b1-3)Gal(b1-4)GlcNAc(b1-3)Gal(b1-4)GlcNAc(b1-2)Man(a1-3)]Man(b1-4)GlcNAc(b1-4)[Fuc(a1-6)]GlcNAc
# In short: as §1
# [36] = target: GlcNAc(b1-3)Gal(b1-4)GlcNAc(b1-3)Gal(b1-4)GlcNAc(b1-3)Gal(b1-4)GlcNAc(b1-3)Gal(b1-4)GlcNAc(b1-2)Man(a1-3)[GlcNAc(b1-3)Gal(b1-4)GlcNAc(b1-3)Gal(b1-4)GlcNAc(b1-3)Gal(b1-4)GlcNAc(b1-3)Gal(b1-4)GlcNAc(b1-2)Man(a1-6)]Man(b1-4)GlcNAc(b1-4)GlcNAc
# In short: as §1
# [37] = target: GlcNAc(b1-3)Gal(b1-4)GlcNAc(b1-3)Gal(b1-4)GlcNAc(b1-3)Gal(b1-4)GlcNAc(b1-3)Gal(b1-4)GlcNAc(b1-2)Man(a1-3)[GlcNAc(b1-3)Gal(b1-4)GlcNAc(b1-3)Gal(b1-4)GlcNAc(b1-3)Gal(b1-4)GlcNAc(b1-3)Gal(b1-4)GlcNAc(b1-2)Man(a1-6)]Man(b1-4)GlcNAc(b1-4)[Fuc(a1-6)]GlcNAc
# In short: as §1
# [38] = target: GlcNAc(b1-3)Gal(b1-4)GlcNAc(b1-3)Gal(b1-4)GlcNAc(b1-3)Gal(b1-4)GlcNAc(b1-3)Gal(b1-4)GlcNAc(b1-2)[GlcNAc(b1-3)Gal(b1-4)GlcNAc(b1-3)Gal(b1-4)GlcNAc(b1-3)Gal(b1-4)GlcNAc(b1-3)Gal(b1-4)GlcNAc(b1-6)]Man(a1-6)[GlcNAc(b1-3)Gal(b1-4)GlcNAc(b1-3)Gal(b1-4)GlcNAc(b1-3)Gal(b1-4)GlcNAc(b1-3)Gal(b1-4)GlcNAc(b1-2)Man(a1-3)]Man(b1-4)GlcNAc(b1-4)[Fuc(a1-6)]GlcNAc
# In short: as §1
# [39] = target: GlcNAc(b1-3)Gal(b1-4)GlcNAc(b1-3)Gal(b1-4)GlcNAc(b1-3)GalNAc
# In short: as §1
binder,measurement,setting,value
B1,glycan array binding signal (z-score),GlcA(b1-3)Gal,0.104
same,glycan array binding signal (z-score),GlcA(b1-3)GlcNAc,0.057
same,glycan array binding signal (z-score),GlcA(b1-6)Gal,0.06
same,glycan array binding signal (z-score),[1],-0.456
same,glycan array binding signal (z-score),[2],-0.474
same,glycan array binding signal (z-score),[3],-0.278
same,glycan array binding signal (z-score),[4],-0.326
same,glycan array binding signal (z-score),[5],-0.368
same,glycan array binding signal (z-score),[6],-0.175
same,glycan array binding signal (z-score),[7],-0.162
same,glycan array binding signal (z-score),[8],-0.777
same,glycan array binding signal (z-score),[9],-0.532
same,glycan array binding signal (z-score),[10],0.105
same,glycan array binding signal (z-score),[11],-0.176
same,glycan array binding signal (z-score),[12],-0.621
same,glycan array binding signal (z-score),[13],-0.256
same,glycan array binding signal (z-score),[14],0.223
same,glycan array binding signal (z-score),[15],-0.893
same,glycan array binding signal (z-score),[16],-0.458
same,glycan array binding signal (z-score),[17],-0.445
same,glycan array binding signal (z-score),[18],-0.545
same,glycan array binding signal (z-score),[19],-0.641
same,glycan array binding signal (z-score),[20],-0.327
same,glycan array binding signal (z-score),[21],-0.128
same,glycan array binding signal (z-score),[22],-0.087
same,glycan array binding signal (z-score),[23],-0.472
same,glycan array binding signal (z-score),GlcNAc(b1-3)Fuc,0.07
same,glycan array binding signal (z-score),GlcNAc(b1-3)Gal,0.094
same,glycan array binding signal (z-score),[24],-0.143
same,glycan array binding signal (z-score),GlcNAc(b1-3)Gal(b1-4)Glc,-0.224
same,glycan array binding signal (z-score),[25],-0.352
same,glycan array binding signal (z-score),[26],-0.384
same,glycan array binding signal (z-score),[27],-0.023
same,glycan array binding signal (z-score),[28],0.85
same,glycan array binding signal (z-score),[29],-0.26
same,glycan array binding signal (z-score),[30],3.43
same,glycan array binding signal (z-score),[31],1.65
same,glycan array binding signal (z-score),[32],0.359
same,glycan array binding signal (z-score),[33],-0.352
same,glycan array binding signal (z-score),[34],1.19
same,glycan array binding signal (z-score),[35],0.586
same,glycan array binding signal (z-score),[36],-0.188
same,glycan array binding signal (z-score),[37],0.213
same,glycan array binding signal (z-score),[38],0.536
same,glycan array binding signal (z-score),[39],0.03
